Experimental data as given in PubChem BioAssay AID485281 (National Center for Advancing Translational Sciences (NCATS), 2010).
Hit rate of the full screen: of about 350,000 compounds, about 260 (0.074%) were called active. This list was built around the results that the source calls inconclusive (neither active nor inactive); the mix of calls is not that of the screen. Calls follow the shape of the dose curve; as a rule, active = well fitted inhibition curve with a large enough effect; inconclusive = small, poorly fitted or top-dose-only effect; inactive = no such curve, though single readings can be large or run the other way. Potencies of inconclusive entries are doubtful fits and often do not repeat.

What follows are compounds tested against Ferritin light chain (Equus caballus) (UniProt P02791) (assay: qHTS Assay for Identification of Novel General Anesthetics). Details: apoferritin/1-aminoanthracene competitive binding, fluorescence; activity change, negative = displacement: at 77.5 µM (top of the series).
Sequence of UniProt P02791 (P02791 whole entry, looked up): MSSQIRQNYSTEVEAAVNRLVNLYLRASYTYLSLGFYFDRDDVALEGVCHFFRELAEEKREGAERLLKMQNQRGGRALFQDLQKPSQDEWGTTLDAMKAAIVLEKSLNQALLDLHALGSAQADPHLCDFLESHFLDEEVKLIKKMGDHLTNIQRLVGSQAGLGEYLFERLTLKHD
How it was run: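 10 uM apoferritin + 50% sat. 1-AMA, PBS; cpd 10 min RT; Ex380/Em535 endpoint; normalized to free probe vs complex; 4-param Hill fit; propofol titration as pos. ctrl.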
% is scaled to controls: 0 for no effect and ±100 for the full control effect; potency is read from the fitted curve at half-maximal effect; tags tell the direction and shape of the fitted curve.
Also: nearly all actives have a fitted effect of over 20% in size.

Potency, inconclusive:
O=C(NCC(c1ccco1)N1CCCCC1)c1ccc(OCc2ccccc2)cc1 (stereo not drawn) 35.5 µM [inhibitor, single point]
N#Cc1c(/N=C/c2cccs2)sc2c1CCCCC2 20 µM [inhibitor, single point]
COC(=O)[C@@H]1CCCN1Cc1nc(Cc2ccccc2F)no1 39.8 µM [inhibitor, single point]
COc1ccc(CCNc2ncnc3c2nnn3C)cc1 39.8 µM [inhibitor, partial curve]
COc1ccc(NC(=O)C(=O)c2cn(CC(=O)N3CCCC3)c3ccccc23)cc1 12.6 µM [inhibitor, partial curve]
CCCC1CCC(=NNC(=S)NCCc2ccccc2)CC1 (stereo not drawn) 28.2 µM [inhibitor, partial curve]
O=[N+]([O-])c1ccc(NC(=S)N/C(=N/CS(=O)(=O)c2ccccc2)c2ccccc2)cc1 50.1 µM [inhibitor, single point]
CCCOC(=O)c1ccc(Oc2cn[nH]c2-c2ccc(OC)cc2O)cc1 14.1 µM [inhibitor, partial curve]
N/C(Cc1ccc([N+](=O)[O-])cc1)=N\OC(=O)COc1cccc2ccccc12 28.2 µM [inhibitor, partial curve]
Cc1ccc(NC(=O)Cn2nc(N3CCN(c4ccccc4)CC3)ccc2=O)cc1F 17.8 µM [inhibitor, partial curve]
CCCC(=O)NC(c1ccc(OC)c(OC)c1)c1c(O)ccc2ccccc12 (stereo not drawn) 44.7 µM [inhibitor, single point]
CCC1CCCCN1S(=O)(=O)c1cc2c3c(c1)CC(=O)N3CCC2 (stereo not drawn) 35.5 µM [inhibitor, single point]
CCCC(=O)Nc1nc2c(s1)COc1ccccc1-2 15.8 µM [inhibitor, partial curve]
N#Cc1c(-c2ccccc2)nc(SCc2cccc(C(F)(F)F)c2)[nH]c1=O 39.8 µM [inhibitor, partial curve]
CC1CCCN(C(=O)CCc2nnc(-c3ccc4c(c3)OCO4)o2)C1 (stereo not drawn) 25.1 µM [inhibitor, single point]
Cc1ccc(C)c(NC(=O)Cn2nnc(C(=O)Nc3c(C)cccc3C)c2N)c1 25.1 µM [inhibitor, partial curve]
CCOc1ccc(OCc2cccc(C(=O)N3CCCCCC3)c2)cc1 20 µM [inhibitor, partial curve]
COc1ccc(CNC(=O)c2cnn3c(C)c(Cc4c(F)cccc4Cl)c(C)nc23)cc1 11.2 µM [inhibitor, single point]
CC(Oc1ccc(Cl)cc1Cl)c1ccnc2nc(N3CCOCC3)nn12 (stereo not drawn) 31.6 µM [inhibitor, partial curve]
COC(=O)/C=C(\C)NC(=O)c1ccccc1Cl 35.5 µM [inhibitor, partial curve]
COc1ccccc1NC(=O)CNC(=O)Cn1cnc2sc(C)c(C)c2c1=O 12.6 µM [inhibitor, partial curve]
COc1ccc(-c2cnn3c(N)c(S(=O)(=O)C(C)(C)C)cnc23)cc1 11.2 µM [inhibitor, partial curve]
Cc1ccc(NC(=O)CN(C)C(=O)CSc2ncc(C(F)(F)F)cc2Cl)cc1 31.6 µM [inhibitor, single point]
O=S(=O)(Nc1ccc(O)c(Sc2nc3ccccc3s2)c1)c1ccc(Cl)cc1 17.8 µM [inhibitor, partial curve]
C/C(=N\NC(=O)c1nnn(-c2nonc2N)c1CN(C)c1ccccc1)c1cccc(O)c1 22.4 µM [inhibitor, partial curve]
O=C(NCc1cccs1)c1csc2ccccc12 50.1 µM [inhibitor, single point]
COc1ccc(-c2noc(-c3ccc(NCc4cccnc4)c([N+](=O)[O-])c3)n2)cc1OC 25.1 µM [inhibitor, partial curve]
COc1ccc(NC(=O)c2csc3c2CCCCC3)c(OC)c1 15.8 µM [inhibitor, partial curve]
CC(C)Oc1cccc(-c2nnc(SCC(=O)Nc3ccc4c(c3)OCCO4)n2N)c1 25.1 µM [inhibitor, partial curve]
CCOc1ccc2nc(N(CCCN(C)C)C(=O)c3ccc(S(=O)(=O)N4CCc5ccccc5C4)cc3)sc2c1 11.2 µM [inhibitor, partial curve]
NNC(=O)CNS(=O)(=O)c1ccc([N+](=O)[O-])cc1 12.6 µM [inhibitor, partial curve]
Fc1ccc(-n2ncc3c(NC4CCCCCC4)ncnc32)cc1 11.2 µM [inhibitor, full curve, poor fit]
CCNC(=S)Nc1ccc(N(c2ccccc2)C(C)C)cc1 15.8 µM [inhibitor, partial curve]
CS(=O)(=O)N(C(=O)NC(=O)NC12CC3CC(CC(C3)C1)C2)C1CCCCC1 10 µM [inhibitor, partial curve]
Cc1cc(C(=O)COC(=O)c2ccco2)c(C)n1Cc1ccco1 25.1 µM [inhibitor, partial curve]
CCC(CC)C(=O)Nc1cc([N+](=O)[O-])ccc1Cl 14.1 µM [inhibitor, partial curve]
CCN(CC)c1ccc(/C=C(\C#N)C(N)=S)cc1 22.4 µM [inhibitor, partial curve, poor fit]
Cc1nnc2n(Cc3ccccc3)c(=O)c3c4c(sc3n12)CN(Cc1ccccc1)CC4 20 µM [inhibitor, partial curve]
COc1ccc(NC(=O)COC(=O)Cc2ccc(Br)cc2)cc1 6.31 µM [inhibitor, full curve, poor fit]
O=C(COc1ccccc1)Nc1ccccc1Cl 15.8 µM [inhibitor, partial curve]
CCOCC(=O)Nc1ccc(S(=O)(=O)NCCc2ccccc2)cc1 12.6 µM [inhibitor, partial curve]
Cc1ccc(NC(=O)C(=O)NCc2ccc(/C=C(/C#N)C(=O)NCc3cccnc3)o2)cc1 7.94 µM [inhibitor, full curve, poor fit]
Clc1ccc(Nc2nc(C3CC3)cs2)cc1 20 µM [inhibitor, partial curve]
CCN(CC)C(=O)CSc1nc2c(sc(=S)n2CC)c(=O)n1-c1ccccc1 28.2 µM [inhibitor, partial curve]
Cc1ccc2c(c1)nnn2C1CCN(S(=O)(=O)c2ccc(C(=O)N3CC(C)CC(C)C3)cc2)CC1 (stereo not drawn) 31.6 µM [inhibitor, partial curve]
CC(C)CN(C)C(=O)CCc1nnc(Cc2ccc(-c3ccccc3)cc2)o1 17.8 µM [inhibitor, partial curve]
Cc1ccc(NC2CCCN(C(=O)c3cc(C(C)C)[nH]n3)C2)cc1C (stereo not drawn) 35.5 µM [inhibitor, partial curve]
Cc1ccc(C(=O)OCC(=O)NC2CCCCC2)s1 31.6 µM [inhibitor, partial curve]
CC1(c2cccc(Br)c2)NC(=O)N(CC(=O)Nc2cccnc2Cl)C1=O (stereo not drawn) 14.1 µM [inhibitor, partial curve]
COc1ccccc1OCCSc1nc(-c2ccc(C(C)(C)C)cc2)nc2cc(=O)[nH]n12 8.91 µM [inhibitor, partial curve]
COc1cc([N+](=O)[O-])ccc1NC(=O)CCCOc1ccc(C)cc1 44.7 µM [inhibitor, single point]
O=C(CSC1=Nc2ccccc2C2=NC(CCC(=O)NC3CCCCC3)C(=O)N12)Nc1cccc(C(F)(F)F)c1 (stereo not drawn) 7.94 µM [inhibitor, full curve]
COc1ccc(C(=O)NCC(=O)OCC(=O)c2ccc3c(c2)NC(=O)CO3)cc1OC 28.2 µM [inhibitor, partial curve]
Cc1ccccc1-c1nnn(CC(=O)c2ccc(S(=O)(=O)N3CCCC3)cc2)n1 17.8 µM [inhibitor, partial curve]
CN(C)C(CNC(=O)Cc1cccc(C(F)(F)F)c1)c1ccco1 (stereo not drawn) 31.6 µM [inhibitor, single point]
O=C(CC12CC3CC(CC(C3)C1)C2)N1CCCC1 28.2 µM [inhibitor, partial curve]

Activity change, negative = displacement, inactive:
OCCNc1nc2ccccc2nc1NCCO -4.51%
Cc1ccc(C(=O)O/N=C2\CCCc3ccccc32)cc1 -23.7%
CCN1C(=O)c2ccccc2Sc2ccc(NC(=O)Nc3cccc([N+](=O)[O-])c3C)cc21 39.5%
COc1ccc(/C=C2\SC(N)=NC2=O)cc1Br -20.4%
Cc1ccc(C2CC2c2n[nH]c(=S)n2-c2cccc(Cl)c2)cc1 (stereo not drawn) -9.86%
NNc1nccc(Nc2ccccc2C(=O)O)n1 1.86%
COc1ccc(-n2c(C)nc3c(cnn3-c3ccc(Cl)cc3)c2=O)cc1 -9.04%
